Experimental data: publication PMC4336329 (PLoS ONE, 2015)
Screen size: about 310,000 compounds; about 2,200 (0.71%) showed an effect of 50% or more. The effect is printed as a negative number. Some of the results follow.

The compounds below were run against human ether-à-go-go-related gene (hERG) potassium channel (human, UniProt Q12809) (assay: primary screen, population patch clamp on CHO cells stably expressing hERG).
human ether-à-go-go-related gene (hERG) potassium channel, sequence (Q12809 whole entry, looked up): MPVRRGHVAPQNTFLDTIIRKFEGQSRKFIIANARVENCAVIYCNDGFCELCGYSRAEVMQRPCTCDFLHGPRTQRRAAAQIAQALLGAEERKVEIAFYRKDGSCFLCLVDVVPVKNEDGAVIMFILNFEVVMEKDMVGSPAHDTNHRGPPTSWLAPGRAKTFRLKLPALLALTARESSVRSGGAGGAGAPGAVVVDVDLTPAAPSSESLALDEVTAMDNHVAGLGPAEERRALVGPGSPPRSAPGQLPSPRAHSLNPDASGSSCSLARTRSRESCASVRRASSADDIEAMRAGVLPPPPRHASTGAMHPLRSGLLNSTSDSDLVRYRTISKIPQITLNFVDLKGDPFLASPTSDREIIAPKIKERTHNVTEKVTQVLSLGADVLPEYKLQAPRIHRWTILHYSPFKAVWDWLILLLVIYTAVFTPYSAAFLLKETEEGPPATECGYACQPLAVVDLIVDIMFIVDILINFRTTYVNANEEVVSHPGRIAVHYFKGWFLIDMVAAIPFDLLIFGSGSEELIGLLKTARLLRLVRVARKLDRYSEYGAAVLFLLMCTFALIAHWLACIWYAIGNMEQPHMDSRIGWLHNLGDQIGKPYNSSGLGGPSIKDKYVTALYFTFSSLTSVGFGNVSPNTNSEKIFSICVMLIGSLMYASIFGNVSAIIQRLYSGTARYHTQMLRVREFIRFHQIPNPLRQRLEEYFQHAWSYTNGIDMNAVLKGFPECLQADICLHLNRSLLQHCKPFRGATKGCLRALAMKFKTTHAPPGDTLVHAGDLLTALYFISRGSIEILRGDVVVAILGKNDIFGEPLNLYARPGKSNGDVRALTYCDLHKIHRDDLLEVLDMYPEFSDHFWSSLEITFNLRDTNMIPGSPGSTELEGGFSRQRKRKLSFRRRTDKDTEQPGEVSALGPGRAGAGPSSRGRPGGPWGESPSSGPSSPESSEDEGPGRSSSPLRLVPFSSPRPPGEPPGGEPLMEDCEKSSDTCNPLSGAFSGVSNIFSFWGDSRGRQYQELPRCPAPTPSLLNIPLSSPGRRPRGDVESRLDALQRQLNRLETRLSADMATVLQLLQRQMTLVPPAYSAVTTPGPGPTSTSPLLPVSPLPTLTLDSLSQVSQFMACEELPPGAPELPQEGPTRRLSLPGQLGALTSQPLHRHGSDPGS

| Compound | hERG current change (%, negative = inhibition) at 1uM [%] |
| --- | --- |
| C=CCSc1ncnc2sc(C)c(C)c12 | 10.5 |
| CS(=O)(=O)c1ccc(N)cc1 | 13.1 |
| O=C(Nc1nccs1)c1ccc2c(c1)OCO2 | 11.2 |
| Cn1nnnc1SCC(=O)N1CCN(C(c2ccccc2)c2ccccc2)CC1 | 7.08 |
| O=C(Nc1nnc(-c2ccc3c(c2)CCCC3)o1)c1ccccc1Cl | 11 |
| CCOP(=O)(OCC)c1cccc(OP(=O)(c2cccc([N+](=O)[O-])c2)c2cccc([N+](=O)[O-])c2)c1 | 12.6 |
| Cc1ccc(NC(=S)NN2CCOCC2)c(C)c1 | 7.15 |
| COc1cc(-c2noc(C)c2-c2ccc(N(C)C)nc2)cc(OC)c1OC | 5.55 |
| COc1ccc(C=Nc2cccnc2N)cc1 | 15.2 |
| COc1ccc([N+](=O)[O-])cc1NC(=O)COC(C)=O | 14.2 |
| CSc1ccc(C(=O)C2CCCN(C(=O)CCc3c(C)nn(C)c3C)C2)cc1 (stereo not drawn) | 14.1 |
| COc1ccc(CNC(=O)COc2ccc(F)cc2)cc1 | -0.435 |
| NS(=O)(=O)c1ccc(CCNC(=O)c2cncc(Br)c2)cc1 | 5.28 |
| CCOc1ccc(/C=C(/NC(=O)c2ccccc2Cl)C(=O)O)cc1 | 6.12 |
| Cc1ccc(CN2CC(C(=O)N3CCN(S(=O)(=O)c4ccc(C)cc4C)CC3)CC2=O)cc1 (stereo not drawn) | 10.7 |
| COc1ccc(-c2cc(C(=O)N(C)CC(=O)Nc3ccccc3Br)c3ccccc3n2)cc1OC | 6.65 |
| C/C(=N\NC(=O)COc1ccc(C(C)(C)C)cc1)c1ccc(OC(F)F)cc1 | 10.9 |
| O=C(Nc1nnc(-c2ccccc2)s1)c1cccc(S(=O)(=O)N2CCOCC2)c1 | 10.3 |
| CC(C)Cc1cc(C(=O)N2CCC(N3CCC(C(=O)NC4CC4)CC3)CC2)n[nH]1 | 12.5 |
| Cc1nn(C(=O)c2ccoc2C)c(N)c1-c1ccccc1 | 9.42 |
| Cc1ccc(Nc2nc(C(=O)NCc3ccco3)cs2)cc1 | 3.51 |
| O=C(NC1CCSc2ccccc21)c1cccc(Br)c1 (stereo not drawn) | 22.1 |
| O=C(NCc1csc(-c2cccs2)n1)Nc1cccc(Cl)c1 | 11.6 |

| Compound | hERG current change (%, negative = inhibition) at 1uM [%] |
| --- | --- |
| CCCNC(=O)c1ccc(SCC(=O)N(CC)CC)c([N+](=O)[O-])c1 | -5.96 |
| COCCCNC(=S)NC1CC2CCC(C1)N2Cc1ccccc1 (stereo not drawn) | 3.4 |
| CN1CCN(S(=O)(=O)c2cccc(C(=O)Oc3cccc(C#N)c3)c2)CC1 | 11.8 |
| Brc1cccc(CNCc2cccs2)c1 | 4.26 |
| Cc1cccnc1-n1c(-c2ccccc2)nc2ccccc2c1=O | -0.9 |
| CCCCCCNC(=O)CC(NS(=O)(=O)c1ccc(OC)cc1)C(C)C (stereo not drawn) | 5.11 |
| Cc1ccccc1NC(=S)NC1CC2CCC(C1)N2Cc1ccco1 (stereo not drawn) | 6.48 |
| Cn1c(=O)n(C)c2cc(S(=O)(=O)NCCO)ccc21 | 4.65 |
| CCCN1C(=O)/C(=C\C=C2/C=CN(CC)c3ccccc32)SC1=S | 15.7 |
| CCOc1ccc(NC(=O)c2cccc3c2C(=O)N(CCOC)C3)cc1 | 13.2 |
| CC1(c2nnc(-c3cccc(Cl)c3)o2)CC(c2ccccc2)=NO1 (stereo not drawn) | 3.04 |
| CCc1cccc(NC(=O)[C@@H]2CCCN2C2=NS(=O)(=O)c3ccccc32)c1 | -8.45 |
| O=C(OCc1ccccc1)C1CCCN1C(=O)c1ccccc1[N+](=O)[O-] (stereo not drawn) | 0.863 |
| COc1ccc(C(=O)Nc2ccc(CN3CCCCC3)cc2)cc1 | -10.2 |
| Cc1cccc(C)c1NC(=O)COn1nnc2ccc(C(F)(F)F)cc21 | 9.25 |
| CCOc1ccc2nc(NC(=O)C3CCCO3)sc2c1 (stereo not drawn) | -2.03 |
| O=C(NCCN=C1NS(=O)(=O)c2ccccc21)c1ccc2nccnc2c1 | 18.3 |
| COc1ccccc1CN1CC(C(=O)NCc2ncccc2C)CCC1=O (stereo not drawn) | 2.01 |
| CC1CC(C)CN(C(=O)c2cc(-c3ccccn3)nc3ccccc23)C1 (stereo not drawn) | 7.69 |
| Cc1cc(C(=O)N2CCCC(C(=O)c3cccc(C(F)(F)F)c3)C2)n[nH]1 (stereo not drawn) | 8.04 |
| Cc1cc(C)n(-c2nc3ccccc3c(=O)n2OCc2ccc(F)cc2)n1 | 14.2 |
| CCOc1ccc(NC(=O)C2CC(=O)N(C(C)C)C2)cc1 (stereo not drawn) | 14.3 |
| CCC(CC)C(=O)OCC(=O)Nc1cccc([N+](=O)[O-])c1 | 6.43 |

| Compound | hERG current change (%, negative = inhibition) at 1uM [%] |
| --- | --- |
| Cc1ccc(-c2nnn(CC(=O)N(c3cccc(F)c3)C(C(=O)NC3CCCC3)c3ccco3)n2)o1 (stereo not drawn) | 14.1 |
| C=Cn1c(N2CCOCC2)nc2c1c(=O)[nH]c(=O)n2C | 0.946 |
| COc1cc(O)c(CC=C(C)C)c(O)c1C(=O)CCc1ccc(O)cc1 | 8.18 |
| O=C(COc1ccccc1-c1ccccc1)N/N=C/c1cccc2ccccc12 | 3.51 |
| C/C(CCCO)=N/Nc1ccc([N+](=O)[O-])cc1[N+](=O)[O-] | 7.43 |
| COc1cccc2cc(C(N)=O)/c(=N/NC(=O)COc3ccc(Cl)cc3)oc12 | 14 |
| COC(=O)CSc1nnc(-c2ccccc2OC)o1 | 13 |
| O=C(Cc1ccccc1)Nc1cccc([N+](=O)[O-])c1 | 11.1 |
| O=C(CN1CCN(S(=O)(=O)N2CCCCCC2)CC1)Nc1ccc(F)cc1 | -75.1 |
| Cc1ccc(Cc2cnc(NC(=O)c3cccs3)s2)cc1 | 10.9 |
| COc1ccc(Cn2c(CO)cnc2SCC(=O)Nc2cc(C)on2)cc1 | 15.2 |
| CC1(C)Cc2c(sc3c2C2=NCCN2C=N3)CS1.Cl | -1.83 |
| CCOC(=O)c1sc2nc(C)nc(NCc3ccc(Cl)cc3)c2c1C | -89.6 |
| CC(=O)c1ccc(OCC(O)CN2CCN(S(=O)(=O)c3cccc(Br)c3)CC2)cc1 (stereo not drawn) | 18.1 |
| COc1cc(CCC(=O)OCC(=O)N(CCC#N)c2ccccc2)cc(OC)c1OC | 9.93 |
| CC1(C)Cc2nc(NCCN3CCOCC3)c(C#N)cc2CO1 | -1.38 |
| CCSc1nnc(NC(=O)C2CCN(S(=O)(=O)c3ccccc3C(F)(F)F)CC2)s1 | 12.1 |
| CCOC(=O)c1cc(C)n(-c2ccc(OC)c(OC)c2)c1C | 2.44 |
| N=c1oc2ccccc2cc1C(=O)N/N=C/c1ccccc1 | 4.41 |
| COc1ccc(NS(=O)(=O)c2ccc(NC(=S)NCC3CCCO3)cc2)cc1 (stereo not drawn) | 5.53 |
| CS(=O)(=O)N1CCN(C(=O)Cc2ccc([N+](=O)[O-])cc2)CC1 | 5.53 |
| COc1cc(OC)c(C(=O)Nc2ncn[nH]2)cc1OC | 7.08 |
| COc1ccc(NC(=S)Nc2ccc(Oc3ccccc3)cc2)cc1 | -7.22 |

| Compound | hERG current change (%, negative = inhibition) at 1uM [%] |
| --- | --- |
| COc1ccc(-n2c(Cc3cc(=O)[nH]c(=O)[nH]3)nnc2SCC(=O)Nc2cc(C(F)(F)F)ccc2Cl)cc1 | 5.68 |
| S=C(NCCCN1CCOCC1)Nc1ccc(-c2nc3ccccc3[nH]2)cc1 | -6.21 |
| CCc1cc(=O)oc2cc(C)cc(OC(C)C(=O)NC(Cc3c[nH]c4ccc(O)cc34)C(=O)O)c12 (stereo not drawn) | 3.52 |
| COc1ccc(C(=O)NCC2OCCc3ccccc32)c(O)c1 (stereo not drawn) | 16.4 |
| Cc1ccc2c(C)c(C(=O)N(C)C(C)c3ccon3)oc2c1C (stereo not drawn) | 9.32 |
| Cc1ccc(CNC(=O)C2CC(c3ccccc3F)=NO2)cc1 (stereo not drawn) | 7.78 |
| O=C(COc1cc(Cl)ccc1Cl)Nc1ccc2c(c1)CCC2 | 16.1 |
| O=C(O)c1ccccc1NC(=O)C(c1ccccc1)c1ccccc1 | 9.28 |
| O=C(COC(=O)c1ccc([N+](=O)[O-])o1)c1ccccc1 | 12.9 |
| C#CCO[C@@H]1C[C@H](n2cnc3c(NC(=O)c4ccccc4)ncnc32)O[C@@H]1CO | 13.5 |
| CCC(=Cc1ccc(CC)cn1)CC | -2.51 |
| CS(=O)(=O)NN1C(=O)c2ccccc2NC1c1cccc2cccnc12 (stereo not drawn) | 2.6 |
| Cc1ccc(Cl)cc1NC(=O)c1cc(NC(=O)CCCC(=O)O)ccc1N1CCCCC1 | 7.25 |
| FC(F)(F)c1ccc(NC2=NCCCS2)cc1 | 14 |
| CCCC(=O)Nc1ccc2c(c1)nc(CN1CCCCC1)n2C | 10.4 |
| CN1CCN(S(=O)(=O)c2cccc(C(=O)Nc3ccc(Br)cc3Br)c2)CC1 | 4.36 |
| O=C(c1ccc(Cl)cc1)n1c(NCc2ccccc2)n[nH]c1=S | 1.94 |
| Cc1c(-c2cccc(NC(=O)c3ccco3)c2)nc2ncccn12 | 6.7 |
| NNC(=O)CSc1nnc(-c2ccccc2)n1-c1ccccc1 | 10.3 |
| CCC(CC)c1nnc(NC(=O)C2CC(=O)N(C3CCCC3)C2)s1 (stereo not drawn) | 8.17 |
| O=c1oc2ccc(Cl)cc2nc1/C=C(\O)c1ccco1 | 8.79 |
